The whole screen tested about 310,000 compounds, of which about 14,000 (4.5%) showed an effect of 50% or more. Effects have a minus sign here. The list shows a part of the results.
biological target: human ether-à-go-go-related gene (hERG) potassium channel (human, UniProt Q12809); assay: primary screen, population patch clamp on CHO cells stably expressing hERG
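Note: peak tail current of the secondary pulse compared with the same well before compound.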

Chain of human ether-à-go-go-related gene (hERG) potassium channel (Q12809 whole entry, looked up): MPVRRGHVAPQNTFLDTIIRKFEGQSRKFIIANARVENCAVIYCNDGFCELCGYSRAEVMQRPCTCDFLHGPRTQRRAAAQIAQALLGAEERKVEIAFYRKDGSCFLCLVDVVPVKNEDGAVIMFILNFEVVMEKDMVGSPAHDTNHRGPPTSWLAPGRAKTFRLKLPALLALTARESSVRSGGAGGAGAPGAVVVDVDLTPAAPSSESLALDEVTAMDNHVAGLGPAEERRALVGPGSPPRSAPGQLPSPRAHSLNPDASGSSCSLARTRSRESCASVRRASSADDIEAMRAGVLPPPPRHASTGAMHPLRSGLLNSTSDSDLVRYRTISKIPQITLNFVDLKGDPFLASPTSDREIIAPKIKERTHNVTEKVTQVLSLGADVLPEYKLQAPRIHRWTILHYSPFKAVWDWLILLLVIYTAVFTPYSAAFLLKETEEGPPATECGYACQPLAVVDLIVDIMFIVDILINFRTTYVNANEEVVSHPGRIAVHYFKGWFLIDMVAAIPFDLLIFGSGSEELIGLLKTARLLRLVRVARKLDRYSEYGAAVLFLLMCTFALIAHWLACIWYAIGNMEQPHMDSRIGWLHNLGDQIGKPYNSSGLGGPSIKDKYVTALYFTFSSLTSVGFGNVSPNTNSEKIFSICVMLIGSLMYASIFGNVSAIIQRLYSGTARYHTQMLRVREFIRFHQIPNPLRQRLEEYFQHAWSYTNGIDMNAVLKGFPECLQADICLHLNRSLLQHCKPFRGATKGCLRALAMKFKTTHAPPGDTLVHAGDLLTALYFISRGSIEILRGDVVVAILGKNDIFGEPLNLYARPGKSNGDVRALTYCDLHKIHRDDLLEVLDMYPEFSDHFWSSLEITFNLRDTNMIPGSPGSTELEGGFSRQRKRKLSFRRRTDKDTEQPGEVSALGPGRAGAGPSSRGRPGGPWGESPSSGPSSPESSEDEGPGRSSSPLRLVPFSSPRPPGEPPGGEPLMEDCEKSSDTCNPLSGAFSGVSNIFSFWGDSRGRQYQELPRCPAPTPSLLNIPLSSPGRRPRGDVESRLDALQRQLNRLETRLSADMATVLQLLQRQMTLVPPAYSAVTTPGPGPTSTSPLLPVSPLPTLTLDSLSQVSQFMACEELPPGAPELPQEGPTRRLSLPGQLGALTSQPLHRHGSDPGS

SMILES | hERG current change (%, negative = inhibition) at 10uM [%]
O=c1oc(-c2ccccc2)nc2c1C1(CCCCC1)Cc1ccccc1-2 | 8.5
CC(C)(C)NCCOCCOc1ccc(Cl)cc1C(C)(C)C.O=C(O)C(=O)O | 0.207
O=C(c1ccccc1)c1nc[nH]c1C(=O)Nc1ccccn1 | 11.8
Cc1ccc(C(=O)CSc2ccccn2)cc1 | -7.25
S=C(NCCCN1CCOCC1)Nc1ccc(Cl)c(Cl)c1 | -40.1
CS(=O)(=O)N(CCc1ccccc1)CC(=O)NCc1ccccc1Cl | -15.7
CCc1nnc(NC(=O)CSc2ccc(-c3ccc(-n4cccn4)cc3)nn2)s1 | 11.3
Cc1cc(C)c2nc(SCCC#N)nc(C)c2c1 | -14.4
NC(=O)C1CCN(C(=O)c2ccco2)CC1 | 5.96
COc1cccc(-c2cc(N3C(=O)Nc4ccccc4N3O)n[nH]2)c1 | 3.16
Cn1cc(C(c2ccccc2OCC(=O)O)c2cn(C)c3ccccc23)c2ccccc21 | 3.58
NC(N)=Nc1nc2ccc(Cl)cc2c(=O)[nH]1 | 11.5
Cc1oc(-c2cccc(Cl)c2)nc1CN(C)C1CCOC1 (stereo not shown) | 0.385
O=C(NCc1cc(C(F)(F)F)cc(C(F)(F)F)c1)C1CC(c2ccccc2C(F)(F)F)=NO1 (stereo not shown) | -5.26
O=C(Nc1nnc(C2CC2)s1)C1CCCO1 (stereo not shown) | 10
O=S(=O)(NCc1ccco1)c1ccc(S(=O)(=O)N2CCCCC2)cc1 | -16.4
Cc1ccccc1-c1nc2ccc(Cl)cc2c(=O)n1O | 13
CC(=O)c1cccc(NC(=O)c2ccc(NS(=O)(=O)c3c(C)noc3C)cc2)c1 | -5.58
Cc1cc(OCC(O)CN2CCCC2)cc(C)c1Cl.Cl (stereo not shown) | -43
CCCc1nn(C)c(C(=O)Nc2ccc3ccccc3c2)c1Cl | 8.62
CC[n+]1ccc(C)c2cc(P(=O)(c3ccccc3)c3ccccc3)ccc21.[I-] | 12.3
COc1nc(OC)nc(N2CCC(C(=O)NCC3CCCCC3)CC2)n1 | -25.7
CCCCNC(=S)N1CCN(c2nc3ccccc3s2)CC1 | 18

SMILES | hERG current change (%, negative = inhibition) at 10uM [%]
CCn1nc(C(=O)Nc2ccc3nc(C)sc3c2)c2ccccc2c1=O | -10.5
COc1ccc(CCNC(=O)CNC(=O)c2ccc3c(c2)OCO3)cc1OC | 16.8
C[C@H]1CN=C(Nc2ccccc2)N1CCc1ccc(F)cc1 | -46.3
O=[N+]([O-])c1ccc(NCCCN2CCOCC2)c(Cl)c1 | -31.8
CNC(=O)COC(=O)c1ccc(OCC(=O)Nc2ccccc2OC)c(OC)c1 | 6.61
CC(=O)N1CCN(c2ncnc3sc(-c4ccccc4)cc23)CC1 | -44.4
Cc1ccc(C(=O)NCCN2C3=NC[C@H](Cc4ccc(O)cc4)N3C[C@H]2Cc2ccc(O)cc2)cc1Br | -51.7
O=c1oc2c3c4c(cc2s1)CCCN4CCC3 | 5.4
O=C(CCc1nnc(C2(c3ccc(Cl)cc3)CCC2)o1)N1CCCC(O)C1 (stereo not shown) | 4.36
O=C(O)CSCC(=O)Nc1ccc(C(F)(F)F)cc1 | 14.9
Cl.OC(CNCc1ccncc1)c1ccccc1 (stereo not shown) | 6.97
CC(C)Nc1nc(SCC(=O)Nc2ccccc2)nc(N2CCOCC2)n1 | -12.7
COc1ccc(Cn2c(=O)n(Cc3ccco3)c(=N)c3c4c(sc32)COC(C)(C)C4)cc1 | -15.9
COc1ccc(C(NC(=O)c2ccco2)c2ccc(OC)c(OC)c2)cc1OC | -3.65
CC(=O)Nc1cccc2c1C(=O)N(c1ccc(OC(C)=O)cc1)C2=O | 12.5
O=C(Cn1nnc2ccccc2c1=O)N[C@@H](Cc1c[nH]c2ccccc12)C(=O)O | 17.9
COc1ccc(C(=O)Oc2ccc3ccc(=O)oc3c2)cc1OC | 11.2
CNC(=O)c1c2c(nc3ccc(Br)cc13)CCCC2 | 1.9
CN1C=CC=C/C1=C1\SC(=S)N(c2ccccc2)C1=O | -2.01
Cc1ccc(-c2nc(-c3ccccn3)no2)cc1 | -14
Cc1cccc(NC(=O)c2ccc(S(=O)(=O)N3CCCCC3)cc2)c1 | -21.7
CC1CCN(C(=O)c2ccc(-n3cnnn3)cc2)CC1 | -72.1
Cc1cccc(NC(=O)CSCc2cc(=O)n3c(C)csc3n2)c1C | -7.86

SMILES | hERG current change (%, negative = inhibition) at 10uM [%]
O=C(NCCc1ccccc1)c1ccc2nc(-c3ccco3)c(-c3ccco3)nc2c1 | -22.3
Fc1ccc(CSc2nc3ccccc3[nH]2)c2ccccc12 | 11.8
COc1cc(C(=O)OCCCN2CCOCC2)ccc1O | 9.6
C/C(Cc1ccccc1)=N\NC(=O)c1cccnc1 | 8.64
CC[C@H](C)[C@@H]1NC(=O)c2cc([N+](=O)[O-])cc(I)c2SC[C@@H](C(N)=O)NC(=O)[C@H](CCCCN)NC1=O | -31.3
CC(C)(C)C(=O)COC(=O)c1cc2ccccc2cc1O | 6.28
CC(=O)N1CCN(CC(=O)Nc2c(Cl)ccc(C)c2Cl)CC1 | 9.04
O=C1NCCCC1C(=O)N1CCCCC1 (stereo not shown) | 14.2
COc1cc(/C=N/n2cnnc2)ccc1OC(=O)N(C)C | 10.5
O=S1(=O)CCOCCN1Cc1ccc(Cl)cc1Cl | -13.5
CC(C(=O)NCC1(c2ccccc2)CCCC1)N1CCOCC1 (stereo not shown) | -4.1
CC(=O)NC(C(=O)c1ccccc1)C(=O)c1ccccc1 | 6.45
CCc1ccc(NC(=O)CCc2nnc3ccc(N4CCCC4)nn23)cc1 | 4.01
O=S(=O)(Nc1ccccc1Cl)c1ccc2[nH]c(=S)oc2c1 | 17.8
C/C(=N\NC(=O)C(C)Nc1cccc(Cl)c1)c1ccc([N+](=O)[O-])cc1 (stereo not shown) | -50.5
COC(=O)c1cc(OC)c(OC)cc1NC(=O)C(C)c1ccc([N+](=O)[O-])cc1 (stereo not shown) | -15.7
CCn1c(=NC(=O)CCS(=O)(=O)c2ccccc2)sc2cccc(OC)c21 | 6.5
Cc1c(S(=O)(=O)NC(C)c2ccccc2)c(=O)n(C)c(=O)n1C (stereo not shown) | 11.2
COc1ccc(/C=N/N2C(=O)CN(C(=O)c3ccccc3)C2c2ccc(OC)cc2)cc1 (stereo not shown) | -4.19
CCn1c(SCC(=O)N/N=C/C(C)=C/c2ccco2)nnc1-c1ccccc1 | -55.1
Cc1ccc(NC(=O)C2C3C=CC4(O3)C2C(=O)N(CCCN2CCCC(C)C2)C4C(=O)NC2CCCCC2)cc1 (stereo not shown) | 9.43
CCN(CC)CCN(CC(=O)Nc1c(C)cc(C)cc1C)C(=O)c1ccccc1.O=C(O)/C=C/C(=O)O | -22.5
COc1ccc(-c2[nH]ncc2CNC(C)CCn2cccn2)c(F)c1 (stereo not shown) | -15.4

SMILES | hERG current change (%, negative = inhibition) at 10uM [%]
CCOC(=O)C1(Cc2ccccc2)CCN(Cc2cn(CC(=O)OC)c3ccccc23)CC1 | -78.1
O=C(O)COc1ccc(NC(=O)c2ccc3c(c2)C(=O)N(C2CCCCC2)C3=O)cc1 | 21.9
CCOc1cc(C(N)=O)cc(Cl)c1OCC | 15.7
COc1cc(C(=O)NCCC(=O)NCCc2ccc(Cl)cc2)cc(OC)c1OC | 4.56
CC(OC(=O)C1CCN(c2ccc(C(F)(F)F)cn2)CC1)C(=O)c1ccccc1 (stereo not shown) | 4.99
FC(F)(F)c1ccccc1C1=CC(c2ccccc2)n2ncnc2N1 (stereo not shown) | -19.7
O=C(NCCCN1CCOCC1)C(C(=O)c1ccccc1)n1ccccc1=O (stereo not shown) | 20.2
CC(C)CNC(=O)CN1C(=O)NC(Cc2c[nH]c3ccccc23)C1=O (stereo not shown) | 13
Cc1cc(C)c(S(=O)(=O)NCC(=O)NCc2ccco2)c(C)c1 | -4.65
Cc1cc(Cl)nc(Cl)c1C(=O)N1CCOCC1 | -47.4
COc1ccc(-c2ccc(-c3nnn(CC(C)=O)n3)cc2)cc1 | 4.44
CCOC(=O)c1cnc2ccc(Cl)cc2c1N1CCN(C)CC1 | -22.1
CC(C)c1nc2cc3ccccc3cc2[nH]1 | -2.75
Cc1occc1-c1nnc(SCC(=O)N2CCN(c3ccccc3F)CC2)n1C | 4.99
CCOc1ccccc1CN1CCN(CC2CC2)CC1CCO (stereo not shown) | -2.67
Cc1cc(/C=N/NC(=O)c2cc3ccccc3o2)c(C)n1C | 4.78
CC(C)OC(=O)CSc1nnc(-c2ccccn2)n1-c1ccccc1 | -0.417
Cc1ccc(S(=O)(=O)Nc2ccc(-n3cnnn3)cc2)c(C)c1 | -32
CC1(C)CCC(=O)C=C1Nc1ccc(F)c(Cl)c1 | 7.56
COc1cc(NC(=O)C2CCCO2)c(OC)cc1Cl (stereo not shown) | 3.32
O=C(CCc1ccc(O)cc1)N1C[C@H]2C[C@@H](C1)c1cccc(=O)n1C2 | 8.85
O=C(Cc1cccs1)NC1CCCC1 | 16.2
